For the assay, the target named is T1, IL-2Rα-hFc.
T1 construct: Whole entry as expressed; also called immobilized IL-2Rα; extracellular region of the IL2 receptor IL-2Rα
Kind of assay: BLI, immobilized IL-2Rα-hFc.

B1: A2M-IL2, untreated (native conformation) (other)
chain: SVSGKPQYMVLVPSLLHTETTEKGCVLLSYLNETVTVSASLESVRGNRSLFTDLEAENDVLHCVAFAVPKSSSNEEVMFLTVQVKGPTQEFKKRTTVMVKNEDSLVFVQTDKSIYKPGQTVKFRVVSMDENFHPLNELIPLVYIQDPKGNRIAQWQSFQLEGGLKQFSFPLSSEPFQGSYKVVVQKKSGGRTEHPFTVEEFVLPKFEVQVTVPKIITILEEEMNVSVCGLYTYGKPVPGHVTVSICRKYSDASDCHGEDSQAFCEKFSGQLNSHGCFYQQVKTKVFQLKRKEYEMKLHTEAQIQEEGTVVELTGRQSSEITRTITKLSFVKVDSHFRQGIPFFGQVRLVDGKGVPIPNKVIFIRGNEANYYSNATTDEHGLVQFSINTTNVMGTSLTVRVNYKDRSPCYGYQWVSEEHEEAHHTAYLVFSPSKSFVHLEPMSHELPCGHTQTVQAHYILNGGTLLGLKKLSFYYLIMAKGGIVRTGTHGLLVKQEDMKGHFSISIPVKSDIAPVARLLIYAVLPTGDVIGDSAKYDVENCLANKVDLSFSPSQSLPASHAHLRVTAAPQSVCALRAVDQSVLLMKPDAELSASSVYNLLPEKDLTGFPGPLNDQDDEDCINRHNVYINGITYTPVSSTNEKDMYSFLEDMGLKAFTNSKIRKPKMCPQLQQYEMHGPEGLRVGFYESDVMGRGHARLVHVEEPHTETVRKYFPETWIWDLVVVNSAGVAEVGVTVPDTITEWKAGAFCLSEDAGLGISSTASLRAFQPFFVELTMPYSVIRGEAFTLKATVLNYLPKCIRVSVQLEASPAFLAVPVEKEQAPHCICANGRQTVSWAVTPKSLGNVNFTVSAEALESQELCGTEVPSVPEHGRKDTVIKPLLVEPEGLEKETTFNSLLCPSGGEVSEELSLKLPPNVVEESARASVSVLGDILGSAMQNTQNLLQMPYGCGEQNMVLFAPNIYVLDYLNETQQLTPEVKSKAIGYLNTGYQRQLNYKHYDGSYSTFGERYGRNQGNTWLTAFVLKTFAQARAYIFIDEAHITQALIWLSQRQKDNGCFRSSGSLLNNAIKGGVEDEVTLSAYITIALLEIPLTVTHPVVRNALFCLESAWKTAQEGDHGSHVYTKALLAYAFALAGNQDKRKEVLKSLNEEAVKKDNSVHWERPQKPKAPVGHFYEPQAPSAEVEMTSYVLLAYLTAQPAPTSEDLTSATNIVKWITKQQNAQGGFSSTQDTVVALHALSKYGAATFTRTGKAAQVTIQSSGTFSSKFQVDNNNRLLLQQVSLPELPGEYSMKVTGEGCVYLQTSLKYNILPEKEEFPFALGVQTLPQTCDEPKAHTSFQISLSVSYTGSRSASNMAIVDVKMVSGFIPLKPTVKMLERSGSGGSGGSGGSGGSGGS[in this place about 150 residues]GSSGGSGGSGGSGGSNHVSRTEVSSNHVLIYLDKVSNQTLSLFFTVLQDVPVRDLKPAIVKVYDYYETDEFAIAEYNAPCSKDLGNA
notes: A2M with wildtype human IL2 ([…], […]) inserted in the ciRBD position; untreated sample; also called A2M ciRBD IL2; control sample
As to B1, the binding result is “binds”.

B2: A2M-IL2, thermolysin-treated (other)
chain: SVSGKPQYMVLVPSLLHTETTEKGCVLLSYLNETVTVSASLESVRGNRSLFTDLEAENDVLHCVAFAVPKSSSNEEVMFLTVQVKGPTQEFKKRTTVMVKNEDSLVFVQTDKSIYKPGQTVKFRVVSMDENFHPLNELIPLVYIQDPKGNRIAQWQSFQLEGGLKQFSFPLSSEPFQGSYKVVVQKKSGGRTEHPFTVEEFVLPKFEVQVTVPKIITILEEEMNVSVCGLYTYGKPVPGHVTVSICRKYSDASDCHGEDSQAFCEKFSGQLNSHGCFYQQVKTKVFQLKRKEYEMKLHTEAQIQEEGTVVELTGRQSSEITRTITKLSFVKVDSHFRQGIPFFGQVRLVDGKGVPIPNKVIFIRGNEANYYSNATTDEHGLVQFSINTTNVMGTSLTVRVNYKDRSPCYGYQWVSEEHEEAHHTAYLVFSPSKSFVHLEPMSHELPCGHTQTVQAHYILNGGTLLGLKKLSFYYLIMAKGGIVRTGTHGLLVKQEDMKGHFSISIPVKSDIAPVARLLIYAVLPTGDVIGDSAKYDVENCLANKVDLSFSPSQSLPASHAHLRVTAAPQSVCALRAVDQSVLLMKPDAELSASSVYNLLPEKDLTGFPGPLNDQDDEDCINRHNVYINGITYTPVSSTNEKDMYSFLEDMGLKAFTNSKIRKPKMCPQLQQYEMHGPEGLRVGFYESDVMGRGHARLVHVEEPHTETVRKYFPETWIWDLVVVNSAGVAEVGVTVPDTITEWKAGAFCLSEDAGLGISSTASLRAFQPFFVELTMPYSVIRGEAFTLKATVLNYLPKCIRVSVQLEASPAFLAVPVEKEQAPHCICANGRQTVSWAVTPKSLGNVNFTVSAEALESQELCGTEVPSVPEHGRKDTVIKPLLVEPEGLEKETTFNSLLCPSGGEVSEELSLKLPPNVVEESARASVSVLGDILGSAMQNTQNLLQMPYGCGEQNMVLFAPNIYVLDYLNETQQLTPEVKSKAIGYLNTGYQRQLNYKHYDGSYSTFGERYGRNQGNTWLTAFVLKTFAQARAYIFIDEAHITQALIWLSQRQKDNGCFRSSGSLLNNAIKGGVEDEVTLSAYITIALLEIPLTVTHPVVRNALFCLESAWKTAQEGDHGSHVYTKALLAYAFALAGNQDKRKEVLKSLNEEAVKKDNSVHWERPQKPKAPVGHFYEPQAPSAEVEMTSYVLLAYLTAQPAPTSEDLTSATNIVKWITKQQNAQGGFSSTQDTVVALHALSKYGAATFTRTGKAAQVTIQSSGTFSSKFQVDNNNRLLLQQVSLPELPGEYSMKVTGEGCVYLQTSLKYNILPEKEEFPFALGVQTLPQTCDEPKAHTSFQISLSVSYTGSRSASNMAIVDVKMVSGFIPLKPTVKMLERSGSGGSGGSGGSGGSGGS[in this place about 150 residues]GSSGGSGGSGGSGGSNHVSRTEVSSNHVLIYLDKVSNQTLSLFFTVLQDVPVRDLKPAIVKVYDYYETDEFAIAEYNAPCSKDLGNA
notes: Same chain after thermolysin cleavage of the bait region; also called A2M ciRBD IL2
With B2, the binding result is reported as “binds”.

B3: A2M-IL2, methylamine-treated (other)
chain: SVSGKPQYMVLVPSLLHTETTEKGCVLLSYLNETVTVSASLESVRGNRSLFTDLEAENDVLHCVAFAVPKSSSNEEVMFLTVQVKGPTQEFKKRTTVMVKNEDSLVFVQTDKSIYKPGQTVKFRVVSMDENFHPLNELIPLVYIQDPKGNRIAQWQSFQLEGGLKQFSFPLSSEPFQGSYKVVVQKKSGGRTEHPFTVEEFVLPKFEVQVTVPKIITILEEEMNVSVCGLYTYGKPVPGHVTVSICRKYSDASDCHGEDSQAFCEKFSGQLNSHGCFYQQVKTKVFQLKRKEYEMKLHTEAQIQEEGTVVELTGRQSSEITRTITKLSFVKVDSHFRQGIPFFGQVRLVDGKGVPIPNKVIFIRGNEANYYSNATTDEHGLVQFSINTTNVMGTSLTVRVNYKDRSPCYGYQWVSEEHEEAHHTAYLVFSPSKSFVHLEPMSHELPCGHTQTVQAHYILNGGTLLGLKKLSFYYLIMAKGGIVRTGTHGLLVKQEDMKGHFSISIPVKSDIAPVARLLIYAVLPTGDVIGDSAKYDVENCLANKVDLSFSPSQSLPASHAHLRVTAAPQSVCALRAVDQSVLLMKPDAELSASSVYNLLPEKDLTGFPGPLNDQDDEDCINRHNVYINGITYTPVSSTNEKDMYSFLEDMGLKAFTNSKIRKPKMCPQLQQYEMHGPEGLRVGFYESDVMGRGHARLVHVEEPHTETVRKYFPETWIWDLVVVNSAGVAEVGVTVPDTITEWKAGAFCLSEDAGLGISSTASLRAFQPFFVELTMPYSVIRGEAFTLKATVLNYLPKCIRVSVQLEASPAFLAVPVEKEQAPHCICANGRQTVSWAVTPKSLGNVNFTVSAEALESQELCGTEVPSVPEHGRKDTVIKPLLVEPEGLEKETTFNSLLCPSGGEVSEELSLKLPPNVVEESARASVSVLGDILGSAMQNTQNLLQMPYGCGEQNMVLFAPNIYVLDYLNETQQLTPEVKSKAIGYLNTGYQRQLNYKHYDGSYSTFGERYGRNQGNTWLTAFVLKTFAQARAYIFIDEAHITQALIWLSQRQKDNGCFRSSGSLLNNAIKGGVEDEVTLSAYITIALLEIPLTVTHPVVRNALFCLESAWKTAQEGDHGSHVYTKALLAYAFALAGNQDKRKEVLKSLNEEAVKKDNSVHWERPQKPKAPVGHFYEPQAPSAEVEMTSYVLLAYLTAQPAPTSEDLTSATNIVKWITKQQNAQGGFSSTQDTVVALHALSKYGAATFTRTGKAAQVTIQSSGTFSSKFQVDNNNRLLLQQVSLPELPGEYSMKVTGEGCVYLQTSLKYNILPEKEEFPFALGVQTLPQTCDEPKAHTSFQISLSVSYTGSRSASNMAIVDVKMVSGFIPLKPTVKMLERSGSGGSGGSGGSGGSGGS[in this place about 150 residues]GSSGGSGGSGGSGGSNHVSRTEVSSNHVLIYLDKVSNQTLSLFFTVLQDVPVRDLKPAIVKVYDYYETDEFAIAEYNAPCSKDLGNA
modifications: thiol ester aminolysed with methylamine (position not given)
notes: Same chain after methylamine treatment; also called A2M ciRBD IL2
As for B3, the “fold increase of the degree of binding (by kobs values) against A2M-IL2 in its native conformation” value was ~10 fold.
